In paper PMC5892938:
This is one part of the list. At the low end of the ranking the order means little.

Molecular target: GST-SBP-SLBP (stem-loop binding protein) (UniProt Q14493)
Assay: targeted RNA Bind-n-Seq;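 further: DESeq read counts versus GST-SBP nonspecific binding control pulldown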
Settings: RBNS binding buffer: 25 mM Tris pH 7.5, 150 mM KCl, 3 mM MgCl2, 0.1% Tween, 0.5 mg/mL BSA, 1 mM DTT; 27 nM protein, 750 pM RNA pool; temperature not stated; high values mean tight binding

| Sequence | binding signal (log2 fold change) |
| --- | --- |
| GGUCACGUCUCAAUCAACUCUAUUCCCAGGGAAAUCCCUGGCAAACUCAACAGCUCGCAGUCAAG | -0.216 |
| GGUCACGUCUCAAUCAACUCAACUUCCAGGGAAAUCCCUGGUAUACUCAACAGCUCGCAGUCAAG | 0.213 |
| GGUCACGUCUCAAUCAACUCAACUUCCAGGGAAACCCCUGGUAUACUCAACAGCUCGCAGUCAAG | -0.297 |
| GGUCACGUCUCAAUCAACUCGUUUUCAGGAGUUUUCUCCUGCUUAUUCAACAGCUCGCAGUCAAG | 0.0607 |
| GGUCACGUCUCAAUCAACUCUUUCUCAGGAGUUUGCUCCUGCAUUUUCAACAGCUCGCAGUCAAG | 0.0897 |
| GGUCACGUCUCAAUCAACUCUAGUCCCAGGGAAAACCCUGGUUAAUUCAACAGCUCGCAGUCAAG | -0.135 |
| GGUCACGUCUCAAUCAACUCUAUUUCAGGAGUUUCCUCCUGUAUACUCAACAGCUCGCAGUCAAG | 0.011 |
| GGUCACGUCUCAAUCAACUCUUCAGAGGGGGGGAAAACCCCUUUACCCUCGUCUUCAACAGCUCGCAGUCAAG | 0.152 |
| GGUCACGUCUCAAUCAACUCAAUCUCAGGAGUUUCCUCCUGUUUUCUCAACAGCUCGCAGUCAAG | 0.145 |
| GGUCACGUCUCAAUCAACUCUACUUCCAGGGAAACCCCUGGUAAAUUCAACAGCUCGCAGUCAAG | -0.209 |
| GGUCACGUCUCAAUCAACUCUUCCUCAGGAGUUUCCUCCUGCUUAUUCAACAGCUCGCAGUCAAG | -0.0685 |
| GGUCACGUCUCAAUCAACUCAUUCGAGGGGGGGAAAACCCCUUUACCCUCUAUUUCAACAGCUCGCAGUCAAG | -0.403 |
| GGUCACGUCUCAAUCAACUCCUCAGAGGGGGGGAAAACCCCUUUACCCUCAACAUCAACAGCUCGCAGUCAAG | 0.205 |
| GGUCACGUCUCAAUCAACUCUAUCCCCAGGGAAAACCCUGGCAAUUUCAACAGCUCGCAGUCAAG | 0.0125 |
| GGUCACGUCUCAAUCAACUCAAUUUCCAGGGAAAUCCCUGGUUUUCUCAACAGCUCGCAGUCAAG | -0.416 |
| GGUCACGUCUCAAUCAACUCAGGUCCAGGAGUUUACUCCUGCAAUUUCAACAGCUCGCAGUCAAG | 0.516 |
| GGUCACGUCUCAAUCAACUCAUGUCCAGGAGUUUACUCCUGCUAUUUCAACAGCUCGCAGUCAAG | 0.0394 |
| GGUCACGUCUCAAUCAACUCAAUCUCAGGAGUUUACUCCUGCUAUUUCAACAGCUCGCAGUCAAG | -0.122 |
| GGUCACGUCUCAAUCAACUCAUAAGAGGGGGGGAAAACCCCUUUACCCUCCAAAUCAACAGCUCGCAGUCAAG | 0.0295 |
| GGUCACGUCUCAAUCAACUCUUUCUCCAGGGAAACCCCUGGUUUAUUCAACAGCUCGCAGUCAAG | 0.149 |
| GGUCACGUCUCAAUCAACUCAACAGAGGGGGGGAAAACCCCUUUACCCUCCCAUUCAACAGCUCGCAGUCAAG | 0.0223 |
